Measured values reported in paper PMC6919601, “Identification of Plasmodium dipeptidyl aminopeptidase allosteric inhibitors by high throughput screening” (PLoS ONE, 2019).
Values joined by “and” are separate entries in the source; they are usually repeats but may differ in a detail not shown here. Equal entries are not always repeated. Hit rate of the full screen: of about 110,000 compounds, about 230 (0.21%) showed an effect of 50% or more. The list shows a part of the results.

Target: DPAP1 (Plasmodium falciparum, UniProt Q8IIJ9)
Sequence (Q8IIJ9 whole entry, looked up): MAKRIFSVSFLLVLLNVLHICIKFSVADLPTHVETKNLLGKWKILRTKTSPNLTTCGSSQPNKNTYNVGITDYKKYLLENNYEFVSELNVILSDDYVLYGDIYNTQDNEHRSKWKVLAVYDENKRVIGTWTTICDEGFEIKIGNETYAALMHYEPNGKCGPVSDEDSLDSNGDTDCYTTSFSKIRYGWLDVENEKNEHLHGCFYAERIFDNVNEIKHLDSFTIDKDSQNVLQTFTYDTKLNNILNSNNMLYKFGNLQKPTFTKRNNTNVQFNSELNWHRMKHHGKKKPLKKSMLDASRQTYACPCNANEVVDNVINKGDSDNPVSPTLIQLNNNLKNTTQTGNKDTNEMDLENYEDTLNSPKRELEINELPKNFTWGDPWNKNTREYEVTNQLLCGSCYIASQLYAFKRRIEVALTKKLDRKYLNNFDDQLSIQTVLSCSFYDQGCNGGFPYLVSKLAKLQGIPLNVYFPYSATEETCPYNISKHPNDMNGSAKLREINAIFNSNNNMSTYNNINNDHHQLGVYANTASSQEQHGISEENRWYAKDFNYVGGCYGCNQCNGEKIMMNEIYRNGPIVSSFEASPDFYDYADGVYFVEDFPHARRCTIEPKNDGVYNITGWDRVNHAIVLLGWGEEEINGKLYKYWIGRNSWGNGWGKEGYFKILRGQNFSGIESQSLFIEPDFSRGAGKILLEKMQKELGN
Test: primary screen, percent inhibition; read by cleavage of a fluorogenic dipeptide substrate; higher = more effect of the substance
Set-up: species or system P. falciparum D10 trophozoite lysates; single well
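Further: 30 min substrate incubation versus DMSO and 10 µM JCP410 controls.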

Row | Compound | % Inhibition @ 10 uM
1 | CC(=O)Nc1ccc(NC(=O)c2ccc(C)c(C)c2)cc1 | -6.66%
2 | Cn1c(=O)c2c(nc(N3CCCCCC3)n2Cc2ccccc2F)n(C)c1=O | 3.69%
3 | CCCn1c(C(O)c2cccc3ccccc23)nc2ccccc21 (stereo not shown) | -4.98%
4 | Cc1csc(NC(=O)CSc2nc(N)c(C#N)cc2C#N)n1 | 0.0719%
5 | Cc1oc(-c2ccc(C(=O)N3CCN(C)CC3)cc2)nc1CS(=O)(=O)c1ccccc1 | -8.88%
6 | Cc1c(Cc2ccccc2)sc(NC(=O)C2CC2)c1C(N)=O | -0.173%
7 | CCC(C)NC(=O)c1cc(-c2ccco2)nc2ccccc12 (stereo not shown) | -13.3%
8 | COc1ccc(-c2cc(OC(=O)c3ccc(C)cc3)c3c(C)oc(C)c3c(=O)c2)cc1OC | -6.64%
9 | Cn1c2ccccc2c2cnn(CC(=O)NCCc3ccc(Cl)cc3)c(=O)c21 | -3.67%
10 | O=C1c2cccc3c(O)c(-c4ccccc4)c(O)c(c23)C(=O)N1c1ccccc1 | -1.06%
11 | CCC1CCCCN1S(=O)(=O)c1ccccc1[N+](=O)[O-] (stereo not shown) | 4.17%
12 | Cc1ccc(S(=O)(=O)N(CC(=O)N2CCOCC2)c2cccc(C)c2)cc1 | 1.57%
13 | O=C(NCCCN1CCCC1=O)c1ccc(CNS(=O)(=O)c2ccc(Br)cc2)cc1 | -5.22%
14 | Brc1ccc(-c2nnnn2-c2ccccc2)cc1 | -2.78%
15 | CC1(C)CC(=O)C(/C=N/CCN2CCNC2=O)=C(O)C1 | 1.03% and -1.81%
16 | CCOc1ccccc1NC(=O)COc1cc(Cl)ccc1Cl | 4.59%
17 | O=S(=O)(Nc1cc(Cl)ccc1Cl)c1ccc(F)cc1 | -3.04%
18 | Cc1ccc(C(=O)Nc2nc(COc3ccccc3)cs2)cc1 | 2.43%
19 | COc1ccccc1NC(=O)CCCC(=O)Nc1ccccc1OC | -6.58%
20 | COCCNC(=O)CCCc1nnc2n(C)c(=O)c3sccc3n12 | -2.15%
21 | CCOc1ccccc1C(=O)N(C(C)CC)C(C)CC (stereo not shown) | -4.63%
22 | CC(/N=c1\cc(O)oc2ccccc12)c1ccccc1 (stereo not shown) | -5.36%
23 | COc1ccc(C(NC(C)=O)c2ccc3cccnc3c2O)cc1 (stereo not shown) | -6.93%
24 | Cc1ccc2nc3c(cc(C(=O)NC4CCCCC4)c(=N)n3CCc3ccccc3)c(=O)n2c1 | -3.27%
25 | Cn1c(CSc2ncccn2)nnc1SCC(N)=O | 6.77%

Row | Compound | % Inhibition @ 10 uM
26 | CCSc1nnc(-c2ccccc2)c2ccccc12 | 0.392%
27 | COc1ccc(-c2nc(CS(=O)CC(=O)NCc3ccccn3)c(C)o2)cc1 (stereo not shown) | 2.37%
28 | Cc1cc(NCc2ccccc2)c2ccc(Cl)cc2n1 | 2.36%
29 | CCOc1ccccc1C1C2=C(CC(C)(C)CC2=O)N(CCC(=O)O)C2=C1C(=O)CC(C)(C)C2 | -2.14%
30 | CCCCCC(=O)Nc1ccc(S(=O)(=O)NC(C)=O)cc1 | -11.6%
31 | CCOc1ccccc1C1C2=C(O)CCCC2=NC(C)=C1C(=O)OC1CCCC1 (stereo not shown) | 0.736%
32 | COc1cc(CNc2ccccc2SC)cc(OC)c1 | 1.17%
33 | CCS(=O)(=O)c1nc(S(=O)(=O)c2ccc(Cl)cc2)c(NCCN2CCOCC2)s1 | 1.15%
34 | Cc1cc(NS(=O)(=O)c2ccc(NC(=O)c3ccc(Cl)cc3Cl)cc2)no1 | -9.31%
35 | CCc1[nH]nc2c1C(c1cccc(OCc3ccccc3)c1)C(C#N)=C(N)O2 (stereo not shown) | -4.03%
36 | CCN(CC)CC#CC(C)(OC(C)=O)C(C)C (stereo not shown) | 6.18%
37 | CC(Oc1ccc(Cl)cc1Cl)C(=O)Nc1ccc(CC#N)cc1 (stereo not shown) | 2.49%
38 | COc1ccc(C2CC3=Nc4ccccc4NC(c4ccncc4)C3=C(O)C2)cc1 (stereo not shown) | -4.76%
39 | CCCN(CCC)C1=N/C(=C\c2ccco2)C(=O)N1c1ccccc1 | -12.7%
40 | O=C(NCCC1=CCCCC1)c1nnc(O)c2ccccc12 | 5.88%
41 | Cc1ccc(-c2csc(/C(C#N)=C\C=C\c3ccc([N+](=O)[O-])cc3)n2)c(C)c1 | 1.91%
42 | Cc1noc2ncnc(NC(C)CCc3ccccc3)c12 (stereo not shown) | -8.54%
43 | CC(=O)c1c(O)cc(C)o/c1=N\c1ccc(F)cc1 | -0.736%
44 | CCOCCCNC(=O)c1oc2ccc3nc(N(C)C)sc3c2c1C | 5.56%
45 | COc1ccc(OC)c(CCNC(=O)CCn2ccc3cc(S(=O)(=O)N4CCCC4)ccc32)c1 | 8.89%
46 | CCCCCCSc1nc(O)cc(=O)n1-c1ccccc1 | 9.67%
47 | O=C(O)CSc1nc2ccccc2[nH]1 | -3.65%
48 | CC(C)Oc1ccc(C(=O)CCNC(C(=O)O)C(C)C)cc1 (stereo not shown) | 59.7%
49 | CCSCCO/C(O)=C1\C(C)=NC2=C(C(=O)CC(c3cccc(OC)c3)C2)C1c1ccc(C)o1 (stereo not shown) | 3.87%
50 | COC(=O)c1ccc(C2Nc3ccc4ccccc4c3C3=C2C(=O)CC(C)(C)C3)cc1 (stereo not shown) | -0.414%

Row | Compound | % Inhibition @ 10 uM
51 | COc1ccc(S(=O)(=O)NCc2cccnc2)c(C)c1C | 1.72%
52 | COc1cccc(-c2nc(CS(=O)(=O)CC(=O)NCc3cccs3)c(C)o2)c1 | -0.138%
53 | CC1CCCCN1C(=O)c1ccccc1NC(=O)c1ccco1 (stereo not shown) | 2.36%
54 | Clc1ccc(-c2nc3c4c5c(sc4ncn3n2)CCCC5)c(Cl)c1 | -4.32%
55 | O=C(CN1C(=O)c2cccc3cccc1c23)Nc1ccc2ccccc2c1 | 5.54%
56 | CC1(C)OC(=O)C(=Cc2ccc(Br)o2)C(=O)O1 | 4.86%
57 | CCOC(=O)c1cc(-c2ccccc2)sc1NC(=O)C1C2CCC(O2)C1C(=O)O (stereo not shown) | -0.318%
58 | Cc1ccc(S(=O)(=O)CCc2nnc(N)s2)cc1 | -4.43%
59 | CCOC(=O)c1cnc2c(-c3cccc(Br)c3)cnn2c1C | -2.14%
60 | Cn1nc(C(F)(F)F)c2cc(C(=O)N[C@@H](Cc3c(F)cccc3F)C(=O)NCC#N)sc21 | 2.87%
61 | CCN(CC)C(=O)c1cc(-c2ccc(OC)c(OC)c2)on1 | -5.09%
62 | COc1ccc(OC)c(CC2(NC(=O)c3ccccc3)N=C3C=CC=CN3C2=O)c1 (stereo not shown) | -0.85%
63 | Cc1nc2ccccc2cc1C(=O)Nc1ccccc1Cl | -2.74%
64 | Cn1c(=O)c2c(-c3ccccc3Br)n(-c3cccc4cccnc34)cc2n(C)c1=O | 2.41%
65 | C(=C\c1ccccc1)/CN1CCN(Cc2ccoc2)CC1 | -0.828%
66 | Cc1cc(OCc2nc(-c3ccccc3)no2)ccc1Br | 3.79%
67 | CCc1ccc(-n2c(C)nc3cc(C(=O)NC(C)CC)ccc32)cc1 (stereo not shown) | -0.256%
68 | CC(O)CN(CCCc1ccccc1)CC(C)O (stereo not shown) | 5.01%
69 | COc1ccc(/N=c2\sc(C)c(-c3ccc(Cl)cc3)n2CCO)cc1 | 1.02%
70 | CCOc1cc(C2c3c(oc4ccccc4c3=O)C(=O)N2c2nnc(C)s2)ccc1O (stereo not shown) | -2.92%
71 | CCCn1c(CCCNC(=O)c2cccc(C)c2)nc2ccccc21 | 2.83%
72 | Cc1cccc(-c2nnc(NC(=O)C(F)(F)F)s2)c1 | -5.7%
73 | CC1=C(CCN2CCN(C/C=C/c3ccccc3)CC2)C(C)(C)CCC1 | -1.41%
74 | O=C(CCC(=O)Oc1ccccc1F)Nc1ccc(Cl)cc1 | 1.42%
75 | CC1CCN(c2c(NCC3CCC(C(=O)Nc4ccccn4)CC3)c(=O)c2=O)CC1 (stereo not shown) | -0.659%

Row | Compound | % Inhibition @ 10 uM
76 | Cc1ccc(C)n1-c1ccc(SCC(=O)O)cc1 | 4.55%
77 | O=C(CSc1c2c(nc3ccc(Cl)cc13)CCCC2)NCc1ccccn1 | -6.89%
78 | O=C(CN1C(=O)c2ccccc2C1=O)N1CCN(C(=O)c2ccccc2)CC1 | -8.36%
79 | Cc1ccc(S(=O)(=O)N2CCCN(S(=O)(=O)c3ccc(C)cc3C)CC2)c(C)c1 | 13.8%
80 | COc1ccc2c(c1OC)C(=O)OC2c1ccc(O)cc1 (stereo not shown) | -0.687%
81 | COc1ccc(C(=N)NOC(=O)/C=C/c2ccccc2)cc1 | -1.33%
82 | COc1ccc(-c2c(C)nn3c(N4CCC(C(=O)NCC5CCCO5)CC4)cc(C)nc23)cc1OC (stereo not shown) | -3.7%
83 | Cc1cc(NC(=O)CN2CCC3(CC2)OCCO3)nc2c1c(=O)oc1ccccc12 | -0.984%
84 | c1ccc(CN2CCN(C3CCSC3)CC2)cc1 (stereo not shown) | -2.91%
85 | Cc1c(O)c2c3c(cccc3c1O)C(=O)NC2=O | -1.21%
86 | COc1cc(C(=O)NCc2ccccc2F)cc(OC)c1OC | -2.73%
87 | C/N=C1\S/C(=C\c2cc(C)n(C)c2C)C(=O)N1C | 6.3%
88 | O=C(CN1C(=O)N/C(=C\c2cccn2-c2cccc(C(=O)O)c2)C1=O)Nc1ccc(F)cc1 | -2.03%
89 | COc1ccc(CNC(=O)C2CCN(S(C)(=O)=O)CC2)cc1 | -0.992%
90 | Cc1ccc(C2CC(=O)N=C(NC(=O)c3ccccc3)N2)cc1 (stereo not shown) | -7.48%
91 | CC(=O)c1cccc(NC(=O)c2cc(-c3ccc(C)s3)nc3ccccc23)c1 | -3.77%
92 | CCN(CC)c1c(S(=O)(=O)c2ccccc2)cnc2cc(OC)c(OC)cc12 | 0.383%
93 | C=CCn1c(SCc2csc(C)n2)nc2scc(-c3ccc(C)o3)c2c1=O | 3.99%
94 | O=C(NCc1ccc(-n2cccc2)cc1)c1cccs1 | 2.99%
95 | O=C(NCCc1ccccc1)c1ccc(CNc2c(NC3CCCCC3)c(=O)c2=O)cc1 | 1.15%
96 | COc1ccccc1C1CC(=O)NC(C)=C1C(=O)OC(C)C (stereo not shown) | -0.668%
97 | COc1ccc(CC(=O)Nc2ccccc2)cc1OC | -2.98%
98 | Cc1[nH]c2ccccc2c1-c1ccnc2ccccc12 | -2.18%
99 | Cn1c(=O)c2c(ncn2CC(=O)NCc2ccc3c(c2)OCO3)n(C)c1=O | 3.47%
100 | CCN1CCN(C(=O)c2ccc(Cn3c(SCc4ccccc4C)nc4ccncc43)cc2)CC1 | 7.46%
